Measurements as given in article PMC3326058.
Results are given in words; binding and its absence hold for the method and conditions named. Binding seen in cells or lysates may run through a third protein. Some entries that bind do so weakly or less than the wild type. Where a sequence is shown, tags or fusion partners need not be part of it.

B1: Flag-tagged JMJD2D, Q6B0I6 1-523 (enzyme)
chain: METMKSKANCAQNPNCNIMIFHPTKEEFNDFDKYIAYMESQGAHRAGLAKIIPPKEWKARETYDNISEILIATPLQQVASGRAGVFTQYHKKKKAMTVGEYRHLANSKKYQTPPHQNFEDLERKYWKNRIYNSPIYGADISGSLFDENTKQWNLGHLGTIQDLLEKECGVVIEGVNTPYLYFGMWKTTFAWHTEDMDLYSINYLHLGEPKTWYVVPPEHGQRLERLARELFPGSSRGCGAFLRHKVALISPTVLKENGIPFNRITQEAGEFMVTFPYGYHAGFNHGFNCAEAINFATPRWIDYGKMASQCSCGEARVTFSMDAFVRILQPERYDLWKRGQDRAVVDHMEPRVPASQELSTQKEVQLPRRAALGLRQLPSHWARHSPWPMAARSGTRCHTLVCSSLPRRSAVSGTATQPRAAAVHSSKKPSSTPSSTPGPSAQIIHPSNGRRGRGRPPQKLRAQELTLQTPAKRPLLAGTTCTASGPEPEPLPEDGALMDKPVPLSPGLQHPVKASGCSWAPVP
B2: Flag-tagged HSPBAP1 (protein, UniProt Q96EW2 1-488)
chain: MAAGSEATTPVIVAAGAGGEEGEHVKPFKPEKAKEIIMSLQQPAIFCNMVFDWPARHWNAKYLSQVLHGKQIRFRMGMKSMSTVPQFETTCNYVEATLEEFLTWNCDQSSISGPFRDYDHSKFWAYADYKYFVSLFEDKTDLFQDVKWSDFGFPGRNGQESTLWIGSLGAHTPCHLDSYGCNLVFQVQGRKRWHLFPPEDTPFLYPTRIPYEESSVFSKINVVNPDLKRFPQFRKAQRHAVTLSPGQVLFVPRHWWHYVESIDPVTVSINSWIELEEDHLARVEEAITRMLVCALKTAENPQNTRAWLNPTEVEETSHAVNCCYLNAAVSAFFDRCRTSEVVEIQALRTDGEHMKKEELNVCNHMEVGQTGSQNLTTGTDKPEAASPFGPDLVPVAQRSEEPPSERGGIFGSDGKDFVDKDGEHFGKLHCAKRQQIMSNSENAIEEQIASNTTTTPQTFISTDDLLDCLVNPQVTRIVAQLLIQGRSL

Legend:
[1] = molecular target: GST-p53 full-length (human), P04637; test: pull-down; GST fusion proteins bound to glutathione agarose beads, incubated with HEK293T cell extract containing Flag-JMJD2D in 20 mM HEPES, 50 mM NaCl, 1 mM DTT, 0.01% Tween-20 for 3 h at 4°C; three washes; anti-Flag (M2) Western blot; only the target purified; details: remark: other sources report otherwise
[2] = molecular target: p53 (expressed from pcDNA3-p53) (human), P04637; test: co-IP; Flag-tagged JMJD protein and p53 coexpressed in HEK293T; lysis in 50 mM Tris-HCl pH 7.4, 150 mM NaCl, 0.5% NP-40; anti-p53 (DO-1) immunoprecipitation, anti-Flag (M2) Western blot; details: remark: other sources report otherwise
[3] = molecular target: p53 (expressed from pcDNA3-p53) (human) (UniProt P04637); test: as above

Binder	binding [1]	binding [2]	binding [3]
B1	binds	binds	–
B2	–	–	no binding
